Data reported in patent US20200390870A1 (MINERVA BIOTECHNOLOGIES, published 2020).

What was measured:
[1] = target: T1, PSMGFR peptide (Primary Sequence of the MUC1 Growth Factor Receptor); test: ELISA on immobilized peptide
T1 construct: synthetic peptide, immobilized on ELISA plates or attached to beads; also called MUC1* peptide; synthetic MUC1* extra cellular domain peptide
T1 peptide: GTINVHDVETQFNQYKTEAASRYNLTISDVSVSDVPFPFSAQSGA

[2] = target: T2, PSMGFR minus 10 amino acids from the N-terminus; test: ELISA on immobilized peptide
T2 construct: also called N-10; N-10 PSMGFR
T2 peptide: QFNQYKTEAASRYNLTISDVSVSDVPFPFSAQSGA

[3] = target: T3, PSMGFR minus 10 amino acids from the C-terminus; test: ELISA on immobilized peptide
T3 construct: also called C-10; C-10 PSMGFR
T3 peptide: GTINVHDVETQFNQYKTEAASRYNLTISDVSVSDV

[4] = target: T1, PSMGFR peptide (Primary Sequence of the …); test: ELISA on PSMGFR peptide
Excerpt: FIGS. 21A-21B show an ELISA graph of several anti-MUC1* scFv-Fc fusion proteins wherein the Fc region has been eliminated or mutated. Shown are hu MN-E6 scFv-Fc-wt, hu MN-E6 scFv-Fc-Y407R, hu MN-E6 scFv-Fc-hingeless, and hu MN-E6 scFv-Fc-Y407R-hingeless. All mutants bind to the PSMGFR peptide of the MUC1* extracellular domain (A). An ELISA graph of several anti-MUC1* scFv-Fc fusion proteins wherein the Fc region is either wild type or mutated. Shown are hu MN-E6 scFv-Fc-wt, hu MN-E6 scFv-Fc-hingeless, and hu MN-C3 scFv-Fc is shown (B). All bind to the PSMGFR peptide of the MUC1* extracellular domain.

B1: humanized MN-E6 scFv-Fc (wild type Fc) (Fc fusion)
chain: DAAQPAEVQLVESGGGLVKPGGSLRLSCAASGFTFSRYGMSWVRQAPGKRLEWVSTISGGGTYIYYPDSVKGRFTISRDNAKNTLYLQMNSLRAEDTAVYYCTRDNYGRNYDYGMDYWGQGTLVTVSSGGGGSGGGGSGGGGSEIVLTQSPATLSLSPGERATLTCSATSSVSYIHWYQQRPGQSPRLLIYSTSNLASGIPARFSGSGSGSDYTLTISSLEPEDFAVYYCQQRSSSPFTFGSGTKVEIK[skipping human IgG1 Fc]
notes: biotinylated for some tissue stainings; also called hu MN-E6 scFv-Fc; hu MN-E6 scFv-Fc-wt
binding result [1]: binds
binding result [2]: binds
binding result [3]: no binding

B2: hu MN-E6 scFv-Fc-Y407R (Fc fusion)
chain: EVQLVESGGGLVKPGGSLRLSCAASGFTFSRYGMSWVRQAPGKRLEWVSTISGGGTYIYYPDSVKGRFTISRDNAKNTLYLQMNSLRAEDTAVYYCTRDNYGRNYDYGMDYWGQGTLVTVSSGGGGSGGGGSGGGGSEIVLTQSPATLSLSPGERATLTCSATSSVSYIHWYQQRPGQSPRLLIYSTSNLASGIPARFSGSGSGSDYTLTISSLEPEDFAVYYCQQRSSSPFTFGSGTKVEIK[skipping human IgG1 Fc with Y407R (EU numbers)]
notes: Fc mutant made to favour monomer; chain put together from the scFv and the mutated Fc entry
binding result [4]: binds

B3: hu MN-E6 scFv-Fc-hingeless (Fc fusion)
chain: EVQLVESGGGLVKPGGSLRLSCAASGFTFSRYGMSWVRQAPGKRLEWVSTISGGGTYIYYPDSVKGRFTISRDNAKNTLYLQMNSLRAEDTAVYYCTRDNYGRNYDYGMDYWGQGTLVTVSSGGGGSGGGGSGGGGSEIVLTQSPATLSLSPGERATLTCSATSSVSYIHWYQQRPGQSPRLLIYSTSNLASGIPARFSGSGSGSDYTLTISSLEPEDFAVYYCQQRSSSPFTFGSGTKVEIK[skipping human IgG1 Fc]
notes: also called humanized MN-E6 scFv-Fc-delta hinge; Dhinge
binding result [4]: binds

B4: humanized MN-C3 scFv-Fc (Fc fusion)
chain: DAAQPAQVQLVQSGAEVKKPGASVKVSCKASGYTFTDYAMNWVRQAPGQGLEWMGVISTFSGNTNFNQKFKGRVTMTTDTSTSTAYMELRSLRSDDTAVYYCARSDYYGPYFDYWGQGTTLTVSSGGGGSGGGGSGGGGSDIVMTQTPLSLSVTPGQPASISCRSSQTIVHSNGNTYLEWYLQKPGQSPQLLIYKVSNRFSGVPDRFSGSGSGTDFTLKISRVEAEDVGVYYCFQGSHVPFTFGGGTKVEIKRT[skipping human IgG1 Fc]
notes: also called hu MN-C3 scFv-Fc
binding result [4]: binds
